# Results reported in PubChem BioAssay (Tox21).
# Inconclusive means that the source gave no clear call. Such entries were picked first, then a sample of the others. Potencies beside an inconclusive call are fits to weak or partial responses and may not hold up. The source made the active and inactive calls. Calls come from the whole dose curve; as a rule, active = well fitted activation curve with a large enough effect in the repeat runs; inconclusive = weak or mixed curves; inactive = flat fitted curve, though single readings scatter.
# Test: Caspase-3/7 induction in CHO-K1 cells by small molecules, qHTS assay (AID 1346980); note: nearly all actives have a fitted effect of over 15% in size
# Conditions: CHO-K1 caspase-3/7 induction, Caspase-Glo luminescence, 17 h; series mostly up to 92.4 µM
# In short: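 Wild-type cells were seeded at 1,500 per well and settled 5 hr at 37 C, 5% CO2, then exposed to DMSO-dissolved compounds for 17 hr. Caspase-Glo 3/7 reagent was added, and luminescence was read after 30min at room temperature.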
# Potency is the fitted concentration of half-maximal effect; tags give direction and shape of the fitted curve.
row,SMILES,Potency
1,C1CCC(C(CC2CCCCN2)C2CCCCC2)CC1 (stereo not given),"inconclusive: 33.5 µM [activator, single point]"
2,CN1CC[C@H](c2c(O)cc(O)c3c(=O)cc(-c4ccccc4Cl)oc23)[C@H](O)C1,active: 0.266 µM
3,OCCN1CCN(CCCN2c3ccccc3Sc3ccc(Cl)cc32)CC1,"inconclusive: 33.5 µM [activator, single point]"
4,CCCCCCCCCCCCCCCC[N+](C)(C)CCN(Cc1ccc(OC)cc1)c1ncccn1,"inconclusive: 33.5 µM [activator, single point]"
5,CN1C[C@H](C(=O)N[C@]2(C)O[C@@]3(O)[C@@H]4CCCN4C(=O)[C@H](Cc4ccccc4)N3C2=O)C[C@@H]2c3cccc4[nH]cc(c34)C[C@H]21,"inconclusive: 33.5 µM [activator, single point]"
